Measured values from EPA's CvTdb concentration-time database.
This continues a long series; more values of the same kind are listed elsewhere.

What was measured:
Rat [1] = test: concentration in plasma after dosing; conditions: 1.5 h; dosed: 2-Methyltetrahydrofuran; 30 mg/kg; oral; Female; F344
Rat [2] = test: concentration in plasma after dosing; conditions: 0.75 h; dosed: 2-Methyltetrahydrofuran; 10 mg/kg; oral; Male; F344
Rat [3] = test: concentration in brain after dosing; conditions: 8 min; dosed: 2-Methyltetrahydrofuran; 30 mg/kg; oral; Female; F344
Rat [4] = test: concentration in brain after dosing; conditions: 0.75 h; dosed: 2-Methyltetrahydrofuran; 100 mg/kg; oral; Female; Harlan Sprague Dawley
Rat [5] = test: concentration in plasma after dosing; conditions: 6 h; dosed: 2-Methyltetrahydrofuran; 100 mg/kg; oral; Female; Harlan Sprague Dawley
Rat [6] = test: concentration in plasma after dosing; conditions: 8 min; dosed: 2-Methyltetrahydrofuran; 10 mg/kg; oral; Male; F344
Rat [7] = test: concentration in brain after dosing; conditions: 1.5 h; dosed: 2-Methyltetrahydrofuran; 30 mg/kg; oral; Female; F344
Rat [8] = test: concentration in plasma after dosing; conditions: 2.5 h; dosed: 2-Methyltetrahydrofuran; 10 mg/kg; oral; Male; F344
Rat [9] = test: concentration in brain after dosing; conditions: 2 min; dosed: 2-Methyltetrahydrofuran; 10 mg/kg; oral; Male; F344
Rat [10] = test: concentration in plasma after dosing; conditions: 1 h; dosed: 2-Methyltetrahydrofuran; 10 mg/kg; oral; Male; F344
Rat [11] = test: concentration in brain after dosing; conditions: 2 min; dosed: 2-Methyltetrahydrofuran; 10 mg/kg; oral; Male; F344; remark: listed apart in the source
Rat [12] = test: concentration in brain after dosing; conditions: 4 min; dosed: 2-Methyltetrahydrofuran; 10 mg/kg; oral; Male; F344
Rat [13] = test: concentration in brain after dosing; conditions: 0.25 h; dosed: 2-Methyltetrahydrofuran; 10 mg/kg; iv; Female; F344
Rat [14] = test: concentration in plasma after dosing; conditions: 0.75 h; dosed: Bromochloroacetic acid; 100 mg/kg; oral; Male; F344
Rat [15] = test: concentration in plasma after dosing; conditions: 20 min; dosed: Bromochloroacetic acid; 10 mg/kg; iv; Male; F344
Rat [16] = test: concentration in plasma after dosing; conditions: dosed: Bromochloroacetic acid, 100 mg/kg, oral, Female, F344
Rat [17] = test: concentration in plasma after dosing; conditions: dosed: Bromochloroacetic acid, 100 mg/kg, oral, Male, F344
Rat [18] = test: concentration in plasma after dosing; conditions: dosed: Bromochloroacetic acid, 100 mg/kg, oral, Male, F344; remark: listed apart in the source
Rat [19] = test: concentration in plasma after dosing; conditions: 0.75 h; dosed: Fluorotelomer alcohol 8+2; 24 mg/kg; oral; Male; Harlan Sprague Dawley
Rat [20] = test: concentration in plasma after dosing; conditions: dosed: Fluorotelomer alcohol 8+2, 40 mg/kg, oral, Female, Harlan Sprague Dawley
Rat [21] = test: concentration in plasma after dosing; conditions: dosed: Fluorotelomer alcohol 8+2, 40 mg/kg, oral, Female, Harlan Sprague Dawley; remark: listed apart in the source
Rat [22] = test: concentration in plasma after dosing; conditions: dosed: Formamide, 90 mg/kg, iv, Male, Harlan Sprague Dawley
Rat [23] = test: concentration in plasma after dosing; conditions: dosed: Formamide, 36 mg/kg, oral, Female, Harlan Sprague Dawley
Rat [24] = test: concentration in plasma after dosing; conditions: dosed: Formamide, 300 mg/kg, oral, Female, Harlan Sprague Dawley
Rat [25] = test: concentration in plasma after dosing; conditions: dosed: Formamide, 300 mg/kg, oral, Female, Harlan Sprague Dawley; remark: listed apart in the source
Rat [26] = test: concentration in plasma after dosing; conditions: dosed: Formamide, 300 mg/kg, oral, Female, Harlan Sprague Dawley; remark: listed apart in the source
Rat [27] = test: concentration in plasma after dosing; conditions: dosed: Formamide, 36 mg/kg, oral, Female, Harlan Sprague Dawley; remark: listed apart in the source
Rat [28] = test: concentration in plasma after dosing; conditions: 5 h; dosed: Formamide; 90 mg/kg; iv; Male; Harlan Sprague Dawley
Rat [29] = test: concentration in plasma after dosing; conditions: dosed: Formamide, 600 mg/kg, oral, Female, F344
Rat [30] = test: concentration in plasma after dosing; conditions: dosed: Formamide, 36 mg/kg, oral, Male, Harlan Sprague Dawley
Rat [31] = test: concentration in plasma after dosing; conditions: dosed: Formamide, 30 mg/kg, iv, Female, F344
Rat [32] = test: concentration in plasma after dosing; conditions: dosed: Formamide, 30 mg/kg, iv, Female, F344; remark: listed apart in the source
Rat [33] = test: concentration in plasma after dosing; conditions: 0.25 h; dosed: Pyridine; 0.5 mg/kg; iv; Male; F344
Rat [34] = test: concentration in plasma after dosing; conditions: 2 min; dosed: Pyridine; 200 mg/kg; oral; Female; F344
Rat [35] = test: concentration in plasma after dosing; conditions: dosed: Pyridine, 100 mg/kg, oral, Female, F344
Rat [36] = test: concentration in plasma after dosing; conditions: 9 h; dosed: Pyridine; 200 mg/kg; oral; Female; Harlan Sprague Dawley
Rat [37] = test: concentration in plasma after dosing; conditions: 40 min; dosed: Pyridine; 200 mg/kg; oral; Female; F344
Rat [38] = test: concentration in plasma after dosing; conditions: 1 h; dosed: Pyridine; 200 mg/kg; oral; Female; F344

CC1CCCO1 (centres undefined) [2-Methyltetrahydrofuran]
Conditions | concentration in brain [µg/g] | concentration in plasma [ng/mL]
Rat [1] | – | 7100
Rat [2] | – | 2160
Rat [3] | 8.65 | –
Rat [4] | 68.4 | –
Rat [5] | – | 2110
Rat [6] | – | 3150
Rat [7] | 1.73 | –
Rat [8] | – | 41.8
Rat [9] | 0.529 | –
Rat [10] | – | 1390
Rat [11] | 1.31 | –
Rat [12] | 3.27 | –
Rat [13] | 4.74 | –

O=C(O)C(Cl)Br (centres undefined) [Bromochloroacetic acid]
Conditions | concentration in plasma [ng/mL]
Rat [14] | 40800
Rat [15] | 1190

concentration in plasma [ng/mL]
Conditions | 0.25 h | 1.5 h | 2 min | 6 h
Rat [16] | 20300 | – | – | 1750
Rat [17] | – | 30700 | 2410 | –
Rat [18] | 7270 | – | – | 271

OCCC(F)(F)C(F)(F)C(F)(F)C(F)(F)C(F)(F)C(F)(F)C(F)(F)C(F)(F)F [Fluorotelomer alcohol 8+2]
Conditions | concentration in plasma [ng/mL]
Rat [19] | 1020

concentration in plasma [ng/mL]
Conditions | Rat [20] | Rat [21]
0.5 h | 566 | 7.32
9 h | 76.9 | 49.7

NC=O [Formamide]
Conditions | concentration in plasma [ng/mL]
Rat [22], 1 h | 192000
Rat [22], 3 h | 136000
Rat [23], 10 min | 21600
Rat [23], 20 h | 14600
Rat [24], 8 h | 407000
Rat [24], 12 h | 335000
Rat [25], 0.5 h | 175000
Rat [25], 48 h | 63400
Rat [26], 8 h | 322000
Rat [26], 12 h | 280000
Rat [27], 2 h | 52500
Rat [27], 5 min | 9000
Rat [29], 0.5 h | 430000
Rat [29], 48 h | 130000
Rat [30], 8 h | 40800
Rat [30], 12 h | 31200
Rat [31], 1 h | 38300
Rat [31], 3 h | 35200
Rat [32], 10 min | 45500
Rat [32], 18 h | 13400

Conditions | concentration in plasma [ng/mL]
Rat [28] | 112000

c1ccncc1 [Pyridine]
Conditions | concentration in plasma [ng/mL]
Rat [33] | 263
Rat [34] | 34300
Rat [36] | 73200
Rat [37] | 94200
Rat [38] | 84800

Rat [35]
Conditions | concentration in plasma [ng/mL]
2 h | 76600
14 h | 58900
